Assay results published in PubChem BioAssay AID1452 (National Center for Advancing Translational Sciences (NCATS), 2008).
The whole screen tested about 150,000 compounds, of which about 190 (0.13%) were called active. Inconclusive results (about 2%) are left out. The call rests on the fitted dose curve; in most records, active means well fitted inhibition curve with a large enough effect; inconclusive means small, poorly fitted or top-dose-only effect; inactive means flat fitted curve, though single readings scatter. The entries are a selection whose mix differs from that of the whole data set.
Further: nearly all actives have a fitted effect of over 55% in size.
On the % scale 0 is the no-effect control and ±100 the full control effect; potency means the concentration at half of the fitted maximal effect.

What follows are molecules tested against Polyunsaturated fatty acid lipoxygenase ALOX12 (Homo sapiens) (UniProt P18054) (assay: qHTS Assay for Inhibitors of 12-hLO (12-human lipoxygenase)). Conditions: purified 12-hLO, xylenol orange hydroperoxide absorbance; series mostly up to 57.1 µM; activity change, negative = inhibition: at the top concentration.
Sequence of UniProt P18054 (P18054 whole entry, looked up): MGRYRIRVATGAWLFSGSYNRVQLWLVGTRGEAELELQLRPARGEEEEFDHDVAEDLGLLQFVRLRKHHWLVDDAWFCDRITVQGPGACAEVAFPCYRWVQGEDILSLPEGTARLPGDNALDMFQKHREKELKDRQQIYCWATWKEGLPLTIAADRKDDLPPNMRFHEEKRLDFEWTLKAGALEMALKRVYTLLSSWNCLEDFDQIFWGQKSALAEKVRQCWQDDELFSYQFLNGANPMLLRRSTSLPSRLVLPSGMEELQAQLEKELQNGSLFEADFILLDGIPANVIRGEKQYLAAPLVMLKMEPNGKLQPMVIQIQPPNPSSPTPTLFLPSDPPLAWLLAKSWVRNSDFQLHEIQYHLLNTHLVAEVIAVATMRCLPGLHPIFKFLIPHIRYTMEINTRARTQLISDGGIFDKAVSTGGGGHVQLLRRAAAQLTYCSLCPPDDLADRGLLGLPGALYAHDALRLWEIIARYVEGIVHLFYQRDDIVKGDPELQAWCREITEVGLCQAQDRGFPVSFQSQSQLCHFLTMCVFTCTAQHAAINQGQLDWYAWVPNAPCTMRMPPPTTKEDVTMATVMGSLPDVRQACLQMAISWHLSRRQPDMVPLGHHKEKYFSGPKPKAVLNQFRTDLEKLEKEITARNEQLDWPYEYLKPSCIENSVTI
Description: Assay Provider: Holman, T.R., University of California, Santa Cruz Screening Center PI: Austin, C.P. Screening Center: NIH Chemical Genomics Center [NCGC] Human lipoxygenase 12hLO is a member of the closely related lipoxygenase family of enzymes which catalyze the site-specific oxidation of arachidonic acid to various hormone precursor molecules and as such is a candidate for drug development in a variety of disease areas, such as cancer and inflammation. Inhibition of 12hLO activity was screened by utilizing arachidonic acid as a substrate. The extent of hydroperoxide product formation was measured by a secondary chromogenic reaction in which xylenol orange (XO, Sigma-Aldrich, cat. number 39,818-7) reacts with the ferric ions produced from the reaction between the hydroperoxide and ferrous ions. The Fe(III)-XO complex is characterized with red-shifted absorbance at 560 nm. A purified preparation of human 12hLO was supplied by Professor Ted Holman, University of California, Santa Cruz.
Assay Protocol: Buffer: 25 mM Hepes pH 7.0, 0.01% Triton X-100. Reagents/Controls: Buffer in columns 3 and 4 as negative control (no enzyme). Substrate solution: 40 uM arachidonic acid (Sigma-Aldrich, St. Louis, MO) final concentration dispensed throughout the plate. Enzyme: 150 nM 12hLO final concentration in columns 1, 2, 5-48. Column 1 is neutral (100% activity). Column 2 contained pin-transferred titration of NDGA (nordihidroguaiaretic acid, Sigma-Aldrich, N 5023, top concentration 20 mM in DMSO, then 1:3 dilution in duplicate). (Dilution factor: 23 nL into 4 uL.) Chromogenic detection reagent (divalent iron/xylenol orange, Fe-XO): 200 uM xylenol orange plus 300 uM ferrous ammonium sulfate prepared freshly in 50 mM sulfuric acid. Assay Steps: Three uL of enzyme were dispensed to 1536-well Greiner black clear bottom plates. Compounds and controls (23 nL) were transferred via Kalypsys PinTool. The plates were incubated for 15 min at room temperature, and then 1 uL of substrate solution was added to start the reaction. After room temperature incubation for 30 minutes, 4 uL of Fe-XO solution was added to each well and the plates were incubated for 30 min. The absorbance at 405 and 573 nm were measured using ViewLux (Perkin-Elmer) High-throughput CCD imager and absorbance protocol settings. The 573-to-405 absorbance ratio was used to compute reaction progress.
For CCCCc1ccc(-c2csc(/C(C#N)=C/c3ccc(C)o3)n2)cc1, the “activity change, negative = inhibition” value was inactive: -6.49%. O=C(Nc1ccncc1)c1cncc(Br)c1 was tested, and the “activity change, negative = inhibition” value was inactive: 35.7%. For N#Cc1nc(-c2ccccc2)oc1NCCN1CCCCC1, the “activity change, negative = inhibition” value was inactive: 20.2%. Cc1ccc(-c2cc(-c3ccc(Cl)cc3)c(C#N)c(N)n2)o1 was tested, and the Potency was active: 11.2 µM. In the case of CN1CCC[C@@H]1c1cccnc1, the “activity change, negative = inhibition” value was inactive: 4.35%. For CC(NCCC(c1ccccc1)c1ccccc1)c1ccccc1 (centres undefined), the “activity change, negative = inhibition” value was inactive: -15.3%. Cn1cc(/C(Cc2ccccc2)=N\O)c2ccccc21 was tested, and the “activity change, negative = inhibition” value was inactive: 31.3%. With CC(C)COc1ccc(CSCCNC(=S)Nc2ccccc2)cc1 the Potency was active: 28.2 µM. With CC1CCc2nc(NC(=O)Nc3ccc4c(c3)OCO4)sc2C1 (centres undefined) the “activity change, negative = inhibition” value was inactive: 31.8%. With O=c1c(O)c(-c2cc(O)c(O)c(O)c2)oc2cc(O)cc(O)c12 the Potency was “inactive”. In the case of COc1ccc(-n2c(COc3cccc(C)c3)nnc2SCC(=O)NCc2ccco2)cc1, the “activity change, negative = inhibition” value was inactive: 3.9%. For CN1CCCC1c1cccnc1 (centres undefined), the “activity change, negative = inhibition” value was inactive: -1.86%. For O=C(O)CC[C@@H](C(=O)O)N1C(=O)c2ccccc2C1=O, the activity change, negative = inhibition was inactive: -2.19% [at 11.4 µM]. In the case of c1ccc(C2CN3CCSC3=N2)cc1 (centres undefined), the “activity change, negative = inhibition” value was inactive: -1.38%. With C/C(=N\NC(=S)NCCc1ccccc1)c1ccc(C)cc1 the Potency was active: 14.1 µM. For Cc1ccc(NCc2nnc(SCC(=O)NCCc3ccccc3)n2C)cc1, the “activity change, negative = inhibition” value was inactive: 37.9%. With CN(C)CCCN1c2ccccc2CCc2ccc(Cl)cc21 the Potency was “inactive”. C[C@H](NCCC(c1ccccc1)c1ccccc1)c1ccccc1 was tested, and the “activity change, negative = inhibition” value was inactive: -14.2% [at 25.6 µM]. For O=C1c2c(O)cc(O)cc2OC(c2ccc(O)c(O)c2)C1O (centres undefined), the “activity change, negative = inhibition” value was inactive: -8.43%. In the case of O=C(NCc1ccccc1)c1ccc(C2SCC(=O)N2Cc2ccccc2)cc1 (centres undefined), the “activity change, negative = inhibition” value was inactive: 46.5%. CN1CCc2cccc3c2C1Cc1ccc(O)c(O)c1-3 (centres undefined) was tested, and the “activity change, negative = inhibition” value was inactive: -6.2%. For Cn1c(SCC(=O)N/N=C/C=C/c2ccco2)nc2ccccc21, the “activity change, negative = inhibition” value was inactive: -1.92%. With OC1(c2cccc(C(F)(F)F)c2)CCN(c2ncnc3c2[nH]c2ccc(F)cc23)CC1 the Potency was active: 17.8 µM. With Cc1ccc2c(c1)CC1(CN2C)C(=O)OC2(CCCCC2)OC1=O the “activity change, negative = inhibition” value was inactive: 39.9%. With COc1ccc(NS(=O)(=O)c2ccc(NC(=S)NC(=O)CC(C)C)cc2)cc1 the Potency was active: 15.8 µM. For NC(=O)C1CCN(Cc2nc3cc(Cl)ccc3c(=O)[nH]2)CC1, the “activity change, negative = inhibition” value was inactive: -14.8%. With O=C1CCC(=O)N1OCCCCOc1ccccc1 the “activity change, negative = inhibition” value was inactive: 32.5%. In the case of CN(Cc1cnc2nc(N)nc(N)c2n1)c1ccc(C(=O)N[C@H](CCC(=O)O)C(=O)O)cc1, the “activity change, negative = inhibition” value was inactive: 1.62% [at 25.6 µM]. With O=C(Nc1ccccc1)c1ccc(NCC2CCCO2)c(S(=O)(=O)N2CCOCC2)c1 (centres undefined) the “activity change, negative = inhibition” value was inactive: 30.3%. In the case of Nc1ccccc1C(=O)/C=C/c1ccc2c(c1)OCO2, the “activity change, negative = inhibition” value was inactive: 2.4%. In the case of O=c1c(-c2ccccc2)coc2cc(O)cc(O)c12, the Potency was active: 11.2 µM. CCc1cccc2c(C(=O)CSc3nncn3-c3ccccc3OC)c[nH]c12 was tested, and the “activity change, negative = inhibition” value was inactive: 19.6%. In the case of C=CCN1C(=O)/C(=C\c2ccco2)C(C(=O)OC)=C1C, the “activity change, negative = inhibition” value was inactive: 26.6%. Clc1ccc(-n2nnnc2-c2cnc(-c3ccccn3)nc2-c2cccs2)cc1 was tested, and the “activity change, negative = inhibition” value was inactive: 56.1%. NC(Cc1cc(I)c(Oc2ccc(O)c(I)c2)c(I)c1)C(=O)O (centres undefined) was tested, and the “activity change, negative = inhibition” value was inactive: -7.76%. With N#C/C(=C\c1ccc(O)c(O)c1)C(=O)NCCCc1ccccc1 the “activity change, negative = inhibition” value was inactive: -27.3%. With CC(=O)N1CCN(c2ccc(NCc3ccc(C)cc3)cc2)CC1 the Potency was active: 17.8 µM. In the case of Cc1cc(C(=O)N[C@H](c2ccccc2)[C@@]2(C)C[C@@H]2[C@@H](C)C(=O)Nc2ccc3ccccc3c2)n(C)n1, the Potency was “inactive”. In the case of COc1ccc(-c2cc(C(=O)N3CCN(Cc4ccccc4)CC3)no2)cc1OC, the “activity change, negative = inhibition” value was inactive: 5.45%. O=C(Cc1ccccc1)N1CCC(C(=O)N2CCN(c3ccc(F)cc3)CC2)CC1 was tested, and the “activity change, negative = inhibition” value was inactive: -3.42%. In the case of Cc1cc(C)nc(NC2=NCC(=O)N2c2ccccc2)n1, the “activity change, negative = inhibition” value was inactive: 32%. For CCN(CC)C(=S)SSC(=S)N(CC)CC, the Potency was “inactive”. Cc1cc(C)n(-c2nc(NCCC(C)C)c3c4c(sc3n2)COC(C)(C)C4)n1 was tested, and the “activity change, negative = inhibition” value was inactive: 38.2%. For COCC(=O)Nc1ccc(Nc2ccccc2)cc1, the “activity change, negative = inhibition” value was inactive: -1.62%. In the case of O=C(CCCCCCCC(=O)NCC1CCCO1)NCC1CCCO1 (centres undefined), the “activity change, negative = inhibition” value was inactive: 30.3%. For CN1CCc2c(sc3c2c(NCc2ccco2)nc2nnnn23)C1, the “activity change, negative = inhibition” value was inactive: 45.9%. With COc1cc(C2Oc3cc(C4Oc5cc(O)cc(O)c5C(=O)C4O)ccc3OC2CO)ccc1O (centres undefined) the “activity change, negative = inhibition” value was inactive: -12%. With CCOC(=O)c1nnc(-c2ccc(C)cc2)nc1Sc1cccc(Cl)c1 the “activity change, negative = inhibition” value was inactive: 30.9%. For CCCCCC#CCC#CCC#CCC#CCCCC(=O)O, the “activity change, negative = inhibition” value was inactive: -29.4%. In the case of O=C(O)c1cc(O)c2c(c1)C(=O)c1cccc(O)c1C2=O, the “activity change, negative = inhibition” value was inactive: -0.624%. In the case of COc1ccccc1N1CCN(CCCCN2C(=O)c3ccccc3C2=O)CC1, the “activity change, negative = inhibition” value was inactive: -11.2%. In the case of CNC[C@H](O)c1ccc(O)c(O)c1, the Potency was “inactive”. For S=C(NCCc1ccc(Cl)cc1)Nc1ccc(Cl)cc1Cl, the Potency was active: 11.2 µM. In the case of N#C/C(=C\c1c[nH]c2ccccc12)C(=O)c1ccc(O)c(O)c1, the Potency was active: 3.98 µM. With S=C(Nc1ccc(Oc2ccc(NC(=S)NC3CCCCC3)cc2)cc1)NC1CCCCC1 the Potency was active: 1.26 µM. With CCc1nnc(NS(=O)(=O)c2ccc(N=Cc3c(C)[nH]n(-c4cccc(Cl)c4)c3=O)cc2)s1 the “activity change, negative = inhibition” value was inactive: 22.1%. In the case of Oc1ccc(-c2nc(-c3ccc(O)c(O)c3)cs2)cc1, the Potency was active: 5.01 µM. In the case of O=C(NC1CCCCC1)C1CC(=O)N(c2ccc(Cl)cc2)C1 (centres undefined), the “activity change, negative = inhibition” value was inactive: -2.2%. CC[C@@H]1Cc2cc(O)ccc2C2=C1c1ccc(O)cc1C[C@H]2CC was tested, and the “activity change, negative = inhibition” value was inactive: -24.1%. For Cc1nc(N=Nc2cc(S(=O)(=O)O)c3cc([N+](=O)[O-])cc(S(=O)(=O)O)c3c2)c(COP(=O)(O)O)c(C=O)c1O, the “activity change, negative = inhibition” value was inactive: -8.17%. With CCN(CC)CCN1C(=O)c2ccccc2NC1c1ccccc1F (centres undefined) the “activity change, negative = inhibition” value was inactive: 31%. CC(=O)C1=C(O)C(=O)N(Cc2ccco2)C1c1ccc(F)cc1 (centres undefined) was tested, and the “activity change, negative = inhibition” value was inactive: 31.7%. For Cc1ccc(NC(=S)/N=C(\N)Nc2nc(C)c3ccccc3n2)cc1C, the Potency was active: 5.62 µM. In the case of Cc1ccc(N2C(=O)/C(=C\c3ccco3)SC2=S)cc1, the Potency was active: 7.94 µM. In the case of O=c1[nH][nH]c(C(F)(F)F)c1C=NCc1cccc(Cl)c1, the “activity change, negative = inhibition” value was inactive: 31.3%. CCOC(=O)C(C)Oc1ccccc1C1NC(=O)NC(C)=C1C(=O)Nc1ccc(C)c(C)c1 (centres undefined) was tested, and the “activity change, negative = inhibition” value was inactive: 17%. With N[C@H](Cc1cc(I)c(Oc2ccc(O)c(I)c2)c(I)c1)C(=O)O the “activity change, negative = inhibition” value was inactive: -6.18% [at 25.6 µM]. With O=c1c(C=NCCCn2ccnc2)c(-c2ccccc2)[nH]n1-c1nc2ccccc2s1 the “activity change, negative = inhibition” value was inactive: -5.02%. CN1CCC[C@H]1c1cccnc1 was tested, and the “activity change, negative = inhibition” value was inactive: 1.82%.
